# Results: the supplement of paper PMC9446081
# Screen size: about 39,000 compounds; about 220 (0.56%) showed activity. This is one part of the list.
# System: Escherichia coli K-12 BW25113
# Assay: relative growth (OD600 normalised to plate interquartile mean) (fraction); higher = less growth inhibition, active = 0.2 or less
# Settings: 50 µM; LB; incubation time: overnight (16-24 h)
# 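Also: static incubation at 37 °C against the wild-type strain, values averaged over two biological replicates.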
row,Structure (SMILES),relative growth
1,O=C(C[C@@H]1C[C@H]2c3cc(NS(=O)(=O)c4ccc(F)cc4)ccc3O[C@H]2[C@H](CO)O1)NCc1cccc(F)c1,inactive: 1.05
2,NC(=O)Cc1ccc(O)cc1,inactive: 0.97
3,CO[C@H]1CN(C)C(=O)c2ccc(NS(=O)(=O)c3cn(C)cn3)cc2OC[C@@H](C)N(Cc2cccc(F)c2)C[C@@H]1C,inactive: 1.01
4,CN1CC2(CCC1=O)CCN(C(=O)c1cc(=O)n(C)c(=O)n1C)CC2,inactive: 1.03
5,O=C(CCCCCNC(=O)OCc1ccc(CO[C@H]2C[C@@H](c3ccc(C(F)(F)F)cc3)C=C(C(=O)N3CCN(Cc4ccc5c(c4)OCO5)CC3)O2)cc1)NO,inactive: 0.983
6,COc1ccc(CN(C)C[C@@H]2OCCCC[C@H](C)Oc3ccc(NC(=O)c4ccccc4)cc3C(=O)N([C@H](C)CO)C[C@@H]2C)cc1,inactive: 1
7,C[C@@H]1CN([C@@H](C)CO)C(=O)c2cccc(NC(=O)Nc3ccc(C(F)(F)F)cc3)c2O[C@@H]1CN(C)C(=O)Nc1ccccc1,inactive: 0.972
8,CCCNC(=O)c1cc2c(c(-c3cccc(-c4cccc(OC)c4)c3)n1)[C@@H](CCO)N([S@](=O)C(C)(C)C)C2,inactive: 1.02
9,C[C@@H]1CN([C@@H](C)CO)C(=O)c2cccc(NS(=O)(=O)c3ccc(F)cc3)c2O[C@H]1CN(C)CC1CC1,inactive: 1.02
10,Cc1noc(C)c1S(=O)(=O)Nc1ccc2c(c1)C(=O)N([C@@H](C)CO)C[C@H](C)[C@@H](CN(C)Cc1ccc3c(c1)OCO3)O2,inactive: 0.995
11,CC(=O)N[C@@H]1CC(=O)N(c2ccccc2)C1,inactive: 0.976
12,Cc1cccc[n+]1C,inactive: 0.999
13,C[C@@H]1CN([C@H](C)CO)C(=O)c2cc(NC(=O)C3CCCCC3)ccc2O[C@@H](C)CCCCO[C@H]1CN(C)C(=O)C1CCCCC1,inactive: 0.988
14,CO[C@H]1CN(C)C(=O)c2cc(NS(=O)(=O)c3ccccc3)ccc2OC[C@H](C)N(C(=O)NC(C)C)C[C@@H]1C,inactive: 1.01
15,O=c1[nH]cc(NCc2ccccc2)c(=O)[nH]1,inactive: 1.04
16,CN(C)CCc1cc(Br)c(OCCCNC(=O)/C=C/c2cc(Br)c(OCCN3CCCCC3)c(Br)c2)c(Br)c1,inactive: 0.975
17,C[C@H](CO)N1C[C@H](C)[C@H](CN(C)Cc2ccc(-c3ccccc3)cc2)Oc2c(NC(=O)Nc3cccc4ccccc34)cccc2C1=O,inactive: 1.01
18,C[C@@H]1CN([C@H](C)CO)C(=O)Cc2cc(NS(=O)(=O)c3cn(C)cn3)ccc2O[C@H]1CN(C)CC1CCCCC1,inactive: 1
19,C[C@@H]1CCCCO[C@@H](CN(C)C(=O)Nc2ccc3c(c2)OCO3)[C@H](C)CN([C@H](C)CO)C(=O)c2cc(NS(=O)(=O)c3ccc(Cl)cc3)ccc2O1,inactive: 1.04
20,CNC(=O)c1cc(N)ccc1F,inactive: 1.04

row,Structure (SMILES),relative growth
1,COc1ccc(NC(=O)Nc2ccc3c(c2)CC(=O)N([C@@H](C)CO)C[C@@H](C)[C@@H](CN(C)S(=O)(=O)c2cn(C)cn2)O3)cc1,inactive: 1.01
2,COc1ccc(S(=O)(=O)Nc2ccc3c(c2)C(=O)N([C@H](C)CO)C[C@@H](C)[C@@H](CN(C)C(=O)Nc2cccc4ccccc24)OCCCC[C@@H](C)O3)cc1,inactive: 1.01
3,C[C@@H]1CN([C@H](C)CO)C(=O)c2cc(NC(=O)CCCN(C)C)ccc2O[C@@H]1CN(C)S(=O)(=O)c1cccs1,inactive: 1.01
4,CC[C@@H]1OC(=O)C[C@@H](O)[C@H](C)[C@@H](O[C@@H]2O[C@H](C)[C@@H](O)[C@H](N(C)C)[C@H]2O)[C@@H](CCN2C[C@H](C)C[C@H](C)C2)C[C@@H](C)C(=O)/C=C/C(C)=C\[C@@H]1CO[C@@H]1O[C@H](C)[C@@H](O)[C@@H](OC)[C@H]1OC,inactive: 0.767
5,C=CCOC(=O)[C@H]1[C@@H]2C(=O)O[C@@H](c3ccccc3)[C@@H](c3ccccc3)N2[C@@H](c2ccc(OCCOC(=O)[C@H]3C[C@H]4C(=O)N[C@@H](CCCCN(C)C)C(=O)N4[C@H]3c3ccc(O)cc3)cc2)[C@]12C(=O)Nc1ccc(I)cc12,inactive: 0.965
6,C[C@@H]1CN([C@@H](C)CO)C(=O)c2cc(C#Cc3cccnc3)cnc2O[C@H]1CN(C)S(=O)(=O)c1ccccc1F,inactive: 1
7,C[C@H]1CN([C@@H](C)CO)C(=O)Cc2cc(NC(=O)C3CC3)ccc2O[C@@H]1CN(C)S(=O)(=O)c1ccc(F)cc1,inactive: 1.03
8,C[C@@H]1CN([C@@H](C)CO)C(=O)c2cc(NC(=O)CCC(F)(F)F)ccc2O[C@@H](C)CCCCO[C@@H]1CN(C)C(=O)Nc1cccc2ccccc12,inactive: 1.01
9,COc1ccc(NC(=O)Nc2ccc3c(c2)CC(=O)N([C@H](C)CO)C[C@H](C)[C@@H](CN(C)Cc2ccc(C(=O)Nc4ccccc4N)cc2)O3)cc1,inactive: 1.01
10,COc1ccc(S(=O)(=O)N(C)C[C@H]2Oc3ccc(NC(=O)CCC(F)(F)F)cc3CC(=O)N([C@@H](C)CO)C[C@@H]2C)cc1,inactive: 0.985
11,Nc1c[n+](N2CCOCC2)no1,inactive: 0.996
12,Cc1cc2n(c(=O)c1C(N)=O)CCO2,inactive: 1.02
13,O=C1OCc2cc(-n3cnnn3)ccc21,inactive: 0.975
14,C[C@@H]1CN([C@H](C)CO)C(=O)c2cccc(NC(=O)c3cnccn3)c2O[C@@H]1CN(C)Cc1ccc2c(c1)OCO2,inactive: 0.997
15,Cc1noc(C)c1S(=O)(=O)N(C)C[C@H]1Oc2ccc(NC(=O)Cc3cn(C)c4ccccc34)cc2CC(=O)N([C@H](C)CO)C[C@H]1C,inactive: 0.953
16,Cc1ccc(S(=O)(=O)Nc2ccc3c(c2)C(=O)N([C@@H](C)CO)C[C@@H](C)[C@H](CN(C)C(=O)Nc2c(C)noc2C)OCCCC[C@H](C)O3)cc1,inactive: 1.03
17,NC(=O)c1nnc2ccc(Cl)cc2c1N,inactive: 1.02
18,Cc1ccc(S(=O)(=O)Nc2ccc3c(c2)C(=O)N([C@@H](C)CO)C[C@H](C)[C@H](CN(C)C(=O)NC2CCCCC2)OCCCC[C@@H](C)O3)cc1,inactive: 0.993
19,C[C@@H]1CN([C@@H](C)CO)C(=O)c2cc(NC(=O)Nc3ccc(F)cc3)ccc2O[C@@H]1CN(C)Cc1ccc(Oc2ccccc2)cc1,inactive: 1
20,Cc1ccc(S(=O)(=O)Nc2ccc3c(c2)C(=O)N([C@H](C)CO)C[C@@H](C)[C@@H](CN(C)Cc2ccc(-c4ccccc4)cc2)O3)cc1,inactive: 1.04

row,Structure (SMILES),relative growth
1,C[C@H]1CN([C@@H](C)CO)C(=O)Cc2cc(NS(=O)(=O)c3ccc(F)cc3)ccc2O[C@@H]1CN(C)Cc1ccc(-c2ccccc2)cc1,inactive: 0.993
2,CN(C)CCCNC(=O)C[C@@H]1CC[C@H]2[C@H](COc3ccc(NC(=O)NC4CCCC4)cc3C(=O)N2C)O1,inactive: 1.01
3,Cc1ccc(S(=O)(=O)N(C)C[C@@H]2OCCCC[C@H](C)Oc3ccc(NC(=O)Cc4ccccc4)cc3C(=O)N([C@H](C)CO)C[C@H]2C)cc1,inactive: 1.02
4,N=C(N)NCCC[C@@H](NC(=O)[C@@H]1CCCN1C(=O)[C@H]1CSSCCC(=O)N[C@@H](Cc2ccc(O)cc2)C(=O)N[C@@H](Cc2ccccc2)C(=O)N[C@@H](CCC(N)=O)C(=O)N[C@@H](CC(N)=O)C(=O)N1)C(=O)NCC(N)=O,inactive: 1.01
5,C[C@@H]1CN([C@@H](C)CO)C(=O)Cc2cc(NS(=O)(=O)c3ccccc3)ccc2O[C@H]1CN(C)S(=O)(=O)c1cn(C)cn1,inactive: 1
6,Cc1noc(C)c1NC(=O)N(C)C[C@@H]1Oc2ccc(NC(=O)c3ccncc3)cc2CC(=O)N([C@@H](C)CO)C[C@@H]1C,inactive: 1.01
7,O=C(NO)c1ccc(C(=O)N/N=C/[C@H](O)[C@H](O)[C@@H](O)[C@@H](O)CO)cc1,inactive: 0.999
8,C[C@H](CO)N1C[C@H](C)[C@@H](CN(C)Cc2ccc(Cl)c(Cl)c2)Oc2c(NC(=O)Nc3ccc4c(c3)OCO4)cccc2C1=O,inactive: 1.02
9,CC1CC(OC(=O)c2ccccc2O)CC(C)(C)C1 (centres undefined),inactive: 1
10,CO/N=[N+](\[O-])N(C)C[C@@H](C)O,inactive: 1.02
11,C[C@H]1CN([C@@H](C)CO)C(=O)Cc2cc(NC(=O)c3ccncc3)ccc2O[C@@H]1CN(C)Cc1ccc2c(c1)OCO2,inactive: 0.998
12,C[C@H](CO)N1C[C@H](C)[C@@H](CN(C)C(=O)Nc2ccc(F)cc2)Oc2ccc(NC(=O)CCN3CCOCC3)cc2C1=O,inactive: 0.993
13,Cc1ccc(S(=O)(=O)N(C)C[C@H]2OCCCC[C@@H](C)Oc3ccc(NC(=O)C4CCCCC4)cc3C(=O)N([C@@H](C)CO)C[C@H]2C)cc1,inactive: 1.02
14,O=C(C[C@H]1CC[C@@H](NC(=O)c2cccnc2)[C@H](CO)O1)NCCN1CCCCC1,inactive: 1
15,C[C@@H]1CN([C@@H](C)CO)C(=O)CCCn2nncc2CO[C@@H]1CN(C)Cc1ccc2c(c1)OCCN2C,inactive: 1.01
16,COc1ccc(CN(C)C[C@H]2Oc3c(NC(=O)Nc4ccc(C(F)(F)F)cc4)cccc3C(=O)N([C@@H](C)CO)C[C@H]2C)cc1,inactive: 0.892
17,C[C@H](CO)N1C[C@H](C)[C@@H](CN(C)C(=O)Nc2ccc(C(F)(F)F)cc2)OCCCC[C@H](C)Oc2ccc(NS(=O)(=O)c3ccc(F)cc3)cc2C1=O,inactive: 1.01
18,COc1ccc(S(=O)(=O)N(C)C[C@H]2Oc3ccc(NC(=O)Cn4cnnn4)cc3C(=O)N([C@H](C)CO)C[C@H]2C)cc1,inactive: 0.999
19,O=C(C[C@H]1CC[C@H](NC(=O)Cc2ccccn2)[C@H](CO)O1)NCCCN1CCOCC1,inactive: 1.01
